Measurements: the supplement of paper PMC9174493
The list shows a part of the results. Single values of this set are uncertain. Values with irradiation are relative to irradiated vehicle.

Assays:
A549-Dual [1] = test: NF-kB reporter (SEAP) activity, viability-corrected, relative to vehicle (fold change vs vehicle); higher = more activation of STING-IRF / NF-kB immune response reporter; conditions: 10 µM
A549-Dual [2] = test: ISRE reporter (Lucia luciferase) activity, viability-corrected, relative to vehicle (fold change vs vehicle); higher = more activation of STING-IRF / NF-kB immune response reporter; conditions: 10 µM
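For NF-kB reporter (SEAP) activity, viability-corrected, relative to vehicle in this document: viability correction based on the alamar blue assay, with concentrations leaving 10% survival or less dropped.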

| SMILES | NF-kB reporter (A549-Dual [1]; irradiation: 8 Gy/4 fr) | NF-kB reporter (A549-Dual [1]; irradiation: none) | ISRE reporter (A549-Dual [2]; irradiation: 8 Gy/4 fr) | ISRE reporter (A549-Dual [2]; irradiation: none) |
| --- | --- | --- | --- | --- |
| CCOC(=O)OC(C)OC1=C(C(=O)Nc2ccccn2)N(C)S(=O)(=O)c2ccccc21 (stereo not drawn) [Ampiroxicam] | 0.789 | 0.989 | 0.845 | 0.847 |
| CCCCC/C=C\C/C=C\CCCCCCCC(=O)OC [Methyl linoleate] | 0.83 | 0.48 | 0.778 | 0.387 |
| COC(=O)C1=C(C)NC(C)=C(C(=O)OC(C)C)C1c1cccc2nonc12 (stereo not drawn) [Isradipine] | 0.514 | 0.68 | 0.522 | 0.627 |
| CC/C=C\C/C=C\C/C=C\C/C=C\C/C=C\C/C=C\CCC(=O)O [Docosahexaenoic Acid] | 0.923 | 0.913 | 0.542 | 0.446 |
| CCCCCCCCc1ccc(CCC(N)(CO)CO)cc1.Cl [Fingolimod (FTY720) HCl] | 0.701 | 1.1 | 0.794 | 1.6 |
| CSCCNc1nc(SCCC(F)(F)F)nc2c1ncn2C1OC(COP(=O)([O][Na])OP(=O)([O][Na])C(Cl)(Cl)P(=O)([O][Na])[O][Na])C(O)C1O (stereo not drawn) [Cangrelor Tetrasodium] | 0.956 | 1.49 | 0.699 | 0.821 |
| Cc1cnc(C(=O)NC2CCCCC/C=C\C3CC3(C(=O)NS(=O)(=O)C3CC3)NC(=O)C3CC(Oc4nc5ccccc5c5ccccc45)CN3C2=O)cn1 (stereo not drawn) [Paritaprevir (ABT-450)] | 1.36 | 1.08 | 1.39 | 1.72 |
| CN(CCCCCCCCCCN(C)C(=O)Oc1cccc([N+](C)(C)C)c1)C(=O)Oc1cccc([N+](C)(C)C)c1.[Br-].[Br-] [Demecarium Bromide] | 0.696 | 1.1 | 0.551 | 0.686 |
| NS(=O)(=O)c1cc2c(cc1Cl)N=C(CSCc1ccccc1)NS2(=O)=O [Benzthiazide] | 1.22 | 0.913 | 1.29 | 0.938 |
| COc1ccc(-c2oc3cc(OC)c(OC)c(O)c3c(=O)c2OC)cc1O [Casticin] | 0.561 | 1.46 | 0.134 | 0.933 |
| COc1ccc2ccc(=O)oc2c1 [7-Methoxycoumarin] | 0.718 | 0.568 | 0.72 | 0.399 |
| O.O.O.O.OCC1OC(OCC2OC(OCC3OC(OC4(CO)OC(CO)C(O)C4O)C(O)C(O)C3O)C(O)C(O)C2O)C(O)C(O)C1O (stereo not drawn) [Stachyose] | 0.853 | 1.16 | 0.173 | 0.364 |
| CC(NCc1ccc(OCc2cccc(F)c2)cc1)C(N)=O.CS(=O)(=O)O (stereo not drawn) [Safinamide Mesylate] | 0.77 | 0.912 | 0.961 | 0.952 |
| CCC(=O)NCC1CC1c1cccc2c1CCO2 (stereo not drawn) [Tasimelteon] | 0.755 | 1.26 | 0.687 | 0.729 |
| CCn1cc(C(=O)O)c(=O)c2cc(F)c(N3CCNCC3)cc21 [Norfloxacin] | 0.732 | 0.854 | 0.677 | 0.862 |
| CC(=O)O.Cc1c(-c2ccc(O)cc2)n(Cc2ccc(OCCN3CCCCCC3)cc2)c2ccc(O)cc12 [Bazedoxifene Acetate] | 0.621 | 1.01 | 0.701 | 2.34 |
| O=C1OC(CO)C(O)C(O)C1O (stereo not drawn) [Gluconolactone] | 0.468 | 0.654 | 0.602 | 0.6 |
| COc1ccc2cc3[n+](cc2c1OC)CCc1cc2c(cc1-3)OCO2.[Cl-] [Berberine chloride] | 0.69 | 1.35 | 0.25 | 0.898 |
| N/N=c1\[nH][nH]/c(=N\N)c2ccccc12.O=S(=O)(O)O [Dihydralazine sulphate] | 0.787 | 0.882 | 0.467 | 0.392 |
| COc1ccc2ccc(=O)oc2c1CC=C(C)C [Osthole] | 0.996 | 0.861 | 1 | 0.824 |
| Nc1ccc(S(=O)(=O)Nc2nccs2)cc1 [Sulfathiazole] | 1.17 | 0.95 | 1.3 | 0.867 |
| C=CC(C)(O)CC/C=C(\C)CCC=C(C)C (stereo not drawn) [Nerolidol] | 0.725 | 0.501 | 0.626 | 0.558 |
| CC1(C(=O)O)CCC2(C)CCC3(C)C(=CC(=O)C4C5(C)CCC(OC6OC(C(=O)[O-])C(O)C(O)C6OC6OC(C(=O)[O-])C(O)C(O)C6O)C(C)(C)C5CCC43C)C2C1.[K+].[K+] (stereo not drawn) [Dipotassium glycyrrhizinate] | 1.03 | 0.654 | 1.05 | 0.606 |
| CC1(OC(=O)/C=C/c2ccccc2)CC(O)C2(O)C=COC(OC3OC(CO)C(O)C(O)C3O)C12 (stereo not drawn) [Harpagoside] | 0.85 | 0.819 | 0.783 | 0.799 |
| CC(C)(C)c1cc(C(C)(C)C)c(NC(=O)c2c[nH]c3ccccc3c2=O)cc1O [Ivacaftor (VX-770)] | 0.917 | 1.3 | 0.871 | 1.4 |
| O=C(O)c1c[nH]c2ccccc12 [Indole-3-carboxylic acid] | 0.857 | 0.561 | 0.843 | 0.476 |

| SMILES | NF-kB reporter (A549-Dual [1]; irradiation: 8 Gy/4 fr) | NF-kB reporter (A549-Dual [1]; irradiation: none) | ISRE reporter (A549-Dual [2]; irradiation: 8 Gy/4 fr) | ISRE reporter (A549-Dual [2]; irradiation: none) |
| --- | --- | --- | --- | --- |
| NCC(=O)O [Glycine] | 0.781 | 0.894 | 0.784 | 0.798 |
| CCOC(=O)C(CCc1ccccc1)NC(C)C(=O)N1C(=O)N(C)CC1C(=O)O.Cl (stereo not drawn) [Imidapril HCl] | 0.698 | 1 | 0.647 | 0.756 |
| CC(=O)C1CCC2C3CC=C4CC(O)CCC4(C)C3CCC12C (stereo not drawn) [Pregnenolone] | 0.787 | 0.838 | 0.786 | 0.694 |
| OCc1ccc(OC2OC(CO)C(O)C(O)C2O)cc1 (stereo not drawn) [Gastrodin] | 0.724 | 0.811 | 0.702 | 0.78 |
| O=C1[N-]S(=O)(=O)c2ccccc21.[Na+] [Saccharin sodium salt hydrate] | 0.939 | 0.724 | 1.19 | 0.86 |
| COc1ccc(Cl)cc1C(=O)NCCc1ccc(S(=O)(=O)NC(=O)NC2CCCCC2)cc1 [Glyburide (Glibenclamide)] | 0.542 | 0.788 | 0.482 | 0.84 |
| Cl.NC12CC3CC(CC(C3)C1)C2 [Amantadine HCl] | 0.801 | 1.04 | 0.932 | 0.937 |
| COC(=O)C1=C(C)NC(C)=C(C(=O)OCC(C)C)C1c1ccccc1[N+](=O)[O-] (stereo not drawn) [Nisoldipine] | 0.545 | 0.788 | 0.496 | 0.422 |
| CCN(CC)CCOC(=O)c1ccc(N)cc1.Cl [Procaine HCl] | 0.942 | 1.1 | 0.982 | 1.06 |
| CC/C=C\C/C=C\C/C=C\C/C=C\C/C=C\CCCC(=O)O [Eicosapentaenoic Acid] | 0.659 | 0.501 | 0.663 | 0.512 |
| COc1c(-c2ccc3cc(NS(C)(=O)=O)ccc3c2)cc(-n2ccc(=O)[nH]c2=O)cc1C(C)(C)C [Dasabuvir(ABT-333)] | 1.16 | 1.49 | 0.984 | 2.46 |
| CN(Cc1cc(Br)cc(Br)c1N)C1CCCCC1.Cl [Bromhexine HCl] | 0.83 | 1.25 | 0.912 | 0.911 |
| Cc1onc(-c2ccccc2Cl)c1C(=O)NC1C(=O)N2C1SC(C)(C)C2C(=O)[O-].O.[Na+] (stereo not drawn) [Cloxacillin Sodium] | 0.863 | 1.35 | 0.835 | 0.708 |
| COc1cc2c(cc1OC)C1Cc3ccc(OC)c(OC)c3CN1CC2 (stereo not drawn) [Tetrahydropalmatine] | 0.723 | 1.35 | 0.651 | 0.715 |
| O=C1CN(/N=C/c2ccc(-c3ccc([N+](=O)[O-])cc3)o2)C([O-])=N1.[Na+] [Dantrolene sodium] | 0.997 | 1.06 | 0.937 | 0.854 |
| CN1CCc2nc(C(=O)NC3CC(C(=O)N(C)C)CCC3NC(=O)C(=O)Nc3ccc(Cl)cn3)sc2C1.Cc1ccc(S(=O)(=O)O)cc1.O (stereo not drawn) [Edoxaban] | 0.718 | 0.822 | 0.613 | 0.658 |
| CCC1OC(=O)C(C)C(OC2CC(C)(OC)C(O)C(C)O2)C(C)C(OC2OC(C)CC(N(C)C)C2O)C(C)(O)CC(C)CN(C)C(C)C(O)C1(C)O (stereo not drawn) [Azithromycin] | 0.626 | 1.24 | 0.825 | 1.62 |
| CNCCC(Oc1cccc2ccccc12)c1cccs1.Cl (stereo not drawn) [Duloxetine HCl] | 0.529 | 0.681 | 0.787 | 0.973 |
| COc1ccc(C(Cl)=C(c2ccc(OC)cc2)c2ccc(OC)cc2)cc1 [Chlorotrianisene] | 0.719 | 0.892 | 0.72 | 0.898 |
| O=C([O][Na])[O][Na] [Sodium carbonate] | 0.988 | 0.745 | 0.944 | 0.63 |
| CCn1cc(C(=O)O)c(=O)c2cc(F)c(N3CCNC(C)C3)c(F)c21 (stereo not drawn) [Lomefloxacin] | 0.796 | 0.895 | 0.649 | 0.628 |
| CC(=O)O.NCc1ccc(S(N)(=O)=O)cc1 [Mafenide Acetate] | 0.836 | 1.07 | 0.853 | 0.911 |
| CCOC(=O)C(CCc1ccccc1)NC1CCc2ccccc2N(CC(=O)O)C1=O (stereo not drawn) [Benazepril] | 0.783 | 0.77 | 0.731 | 0.77 |
| O=C(O)/C=C/C(=O)O.OCCOCCN1CCN(C2=Nc3ccccc3Sc3ccccc32)CC1.OCCOCCN1CCN(C2=Nc3ccccc3Sc3ccccc32)CC1 [Quetiapine Fumarate] | 1 | 0.805 | 1.36 | 1.19 |
| OCC(O)COc1ccc(Cl)cc1 (stereo not drawn) [Chlorphenesin] | 0.647 | 0.749 | 0.708 | 0.693 |
| CCC(C)CC(C)CCCCCCCCC(=O)NC1CC(O)C(O)NC(=O)C2C(O)CCN2C(=O)C(C(O)CC(N)=O)NC(=O)C(C(O)C(O)c2ccc(O)cc2)NC(=O)C2CC(O)CN2C(=O)C(C(C)O)NC1=O (stereo not drawn) [Pneumocandin B0] | 0.73 | 0.901 | 0.772 | 0.804 |
